The whole screen tested about 310,000 compounds, of which about 2,200 (0.71%) showed an effect of 50% or more. Effects have a minus sign here. The list shows a part of the results.
Each molecule was assayed against human ether-à-go-go-related gene (hERG) potassium channel (human, UniProt Q12809) (assay: primary screen, population patch clamp on CHO cells stably expressing hERG).
Chain of human ether-à-go-go-related gene (hERG) potassium channel (Q12809 whole entry, looked up): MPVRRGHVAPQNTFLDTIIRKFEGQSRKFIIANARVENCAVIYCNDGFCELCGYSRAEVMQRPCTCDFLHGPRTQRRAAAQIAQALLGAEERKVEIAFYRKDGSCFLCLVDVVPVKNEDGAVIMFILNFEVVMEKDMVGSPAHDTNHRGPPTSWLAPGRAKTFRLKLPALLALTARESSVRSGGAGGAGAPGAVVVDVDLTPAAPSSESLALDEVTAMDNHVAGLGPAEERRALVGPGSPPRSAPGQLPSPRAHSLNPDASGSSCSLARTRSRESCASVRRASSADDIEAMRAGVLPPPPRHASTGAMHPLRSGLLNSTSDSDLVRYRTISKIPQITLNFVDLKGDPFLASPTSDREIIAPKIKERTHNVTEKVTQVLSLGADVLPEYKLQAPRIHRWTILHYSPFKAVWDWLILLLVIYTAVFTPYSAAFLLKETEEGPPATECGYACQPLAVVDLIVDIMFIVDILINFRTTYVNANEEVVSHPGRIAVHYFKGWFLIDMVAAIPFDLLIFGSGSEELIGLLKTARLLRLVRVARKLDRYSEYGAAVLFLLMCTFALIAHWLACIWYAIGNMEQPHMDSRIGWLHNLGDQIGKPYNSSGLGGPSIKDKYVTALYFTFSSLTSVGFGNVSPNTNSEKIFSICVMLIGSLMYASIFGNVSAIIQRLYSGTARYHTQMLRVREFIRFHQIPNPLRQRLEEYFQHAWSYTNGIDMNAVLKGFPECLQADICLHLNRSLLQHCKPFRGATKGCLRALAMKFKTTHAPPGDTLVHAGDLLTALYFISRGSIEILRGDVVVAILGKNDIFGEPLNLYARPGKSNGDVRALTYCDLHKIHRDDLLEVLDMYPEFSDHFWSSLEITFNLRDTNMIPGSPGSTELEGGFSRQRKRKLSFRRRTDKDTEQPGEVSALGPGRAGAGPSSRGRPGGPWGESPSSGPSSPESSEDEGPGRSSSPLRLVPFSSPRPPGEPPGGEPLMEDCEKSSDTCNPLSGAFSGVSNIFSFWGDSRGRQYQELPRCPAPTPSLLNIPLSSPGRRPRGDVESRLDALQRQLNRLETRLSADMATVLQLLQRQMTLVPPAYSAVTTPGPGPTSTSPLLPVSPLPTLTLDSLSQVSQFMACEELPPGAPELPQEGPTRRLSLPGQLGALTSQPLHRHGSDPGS
For `CC1=C(CC/C(C)=N/NC(N)=S)C(C)(C)CCC1`, the “hERG current change (%, negative = inhibition) at 1uM” value was 1.1%.
`NC(=O)C1(S(=O)(=O)c2ccccc2)CCCCC1` was tested, and the “hERG current change (%, negative = inhibition) at 1uM” value was 14.2%.
`Cc1noc(C)c1N=Nc1ccc(Br)cc1C(=O)O` was tested, and the “hERG current change (%, negative = inhibition) at 1uM” value was 13.3%.
`CCc1nnc(NC(=O)c2ccc(N(C)S(=O)(=O)c3ccccc3)cc2)s1` was tested, and the “hERG current change (%, negative = inhibition) at 1uM” value was 2.11%.
In the case of `Cc1cc2c(c(=O)n1Cc1cccnc1)C(c1ccccc1)C(C#N)=C(N)O2` (centres unmarked), the “hERG current change (%, negative = inhibition) at 1uM” value is reported as 16.5%.
For `CCOc1ccc(C(=O)NCCNC(=O)c2ccc(OCC)cc2)cc1`, the “hERG current change (%, negative = inhibition) at 1uM” value was 15.9%.
`O=C(N/N=C/c1c[nH]c2ccccc12)c1cc(-c2ccccc2)n[nH]1` was tested, and the “hERG current change (%, negative = inhibition) at 1uM” value was 2.02%.
`CCOC(=O)c1c(-c2ccccc2)oc2ccc(OCC(N)=O)cc12` was tested, and the “hERG current change (%, negative = inhibition) at 1uM” value was 8.38%.
For `Cc1ccc(O)c(-c2cc(C(=O)Nc3cccnc3)[nH]n2)c1`, the “hERG current change (%, negative = inhibition) at 1uM” value was 11%.
With `Cc1ccc(-n2c(SCC(=O)OC(C)C)nnc2-c2ccncc2)cc1` the “hERG current change (%, negative = inhibition) at 1uM” value was 0.506%.
For `CCc1ccc(-c2nnn(CCC(=O)OC)n2)cc1`, the “hERG current change (%, negative = inhibition) at 1uM” value was -4.21%.
In the case of `O=C(C1=C[C@H](c2ccc(C(F)(F)F)cc2)C[C@H](OCc2ccc(CO)cc2)O1)N1CCOCC1`, the “hERG current change (%, negative = inhibition) at 1uM” value is reported as 4.82%.
`COc1ccc(C2(O)CCN(CC(=O)Nc3nc(-c4ccccc4)cs3)CC2)cc1` was tested, and the “hERG current change (%, negative = inhibition) at 1uM” value was 4.82%.
With `Cc1nnc(NC(=O)c2ccc(-c3cccc(C(F)(F)F)c3)o2)s1` the “hERG current change (%, negative = inhibition) at 1uM” value was 4.49%.
With `Br.COc1ccc(-c2nc(C)sc2C)cc1` the “hERG current change (%, negative = inhibition) at 1uM” value was 7.72%.
For `O=C(Nc1sc2c(c1-c1nc3ccccc3[nH]1)CCCC2)C1CCCC1`, the “hERG current change (%, negative = inhibition) at 1uM” value was 5.15%.
In the case of `COc1ccc(Nc2nc(NN)nc(Nc3ccc(OC)cc3)n2)cc1`, the “hERG current change (%, negative = inhibition) at 1uM” value is reported as 10.9%.
`COc1cc(C2C(C(=O)c3ccc(C)o3)=C(O)C(=O)N2c2cc(C)on2)ccc1O` (centres unmarked) was tested, and the “hERG current change (%, negative = inhibition) at 1uM” value was 13.5%.
In the case of `CCCCCCCCC1=NCCc2c1[nH]c1ccccc21.Cl`, the “hERG current change (%, negative = inhibition) at 1uM” value is reported as -11.1%.
With `CC1CCC(C(C)C)C(OCC(O)CN2CCOCC2)C1.Cl` (centres unmarked) the “hERG current change (%, negative = inhibition) at 1uM” value was 12.8%.
With `O=C1c2ccccc2NC(c2ccc([N+](=O)[O-])cc2)N1O` (centres unmarked) the “hERG current change (%, negative = inhibition) at 1uM” value was 11.1%.
`CCn1cc([C@@H]2C[C@H]3CN(Cc4cccc(Cl)c4)C(=O)[C@]34CCCN24)c(C)n1` was tested, and the “hERG current change (%, negative = inhibition) at 1uM” value was -18.7%.
For `CCOC(=O)c1ccc(NC(=O)Cn2nnc(-c3ccccc3F)n2)cc1`, the “hERG current change (%, negative = inhibition) at 1uM” value was 12.2%.
`CC1CCCC(C)N1C(=O)CSc1nnc(COc2ccc(F)cc2)o1` (centres unmarked) was tested, and the “hERG current change (%, negative = inhibition) at 1uM” value was 9.68%.
In the case of `CCn1c(SCC(=O)Nc2nc(C)c(C)s2)nc2cccnc21`, the “hERG current change (%, negative = inhibition) at 1uM” value is reported as 6.61%.
With `O=C(Cn1ncc2c(=O)oc3ccccc3c21)N1CCCc2ccccc21` the “hERG current change (%, negative = inhibition) at 1uM” value was -0.534%.
In the case of `CCc1ccc(C(C(=O)NCc2ccccc2)N(C(=O)c2csnn2)C2CC2)cc1` (centres unmarked), the “hERG current change (%, negative = inhibition) at 1uM” value is reported as -0.36%.
`C=CCN(c1cccc(C(F)(F)F)c1)S(=O)(=O)c1cccc(C(=O)OCC(=O)NC(N)=O)c1` was tested, and the “hERG current change (%, negative = inhibition) at 1uM” value was 8.38%.
For `CCOC(=O)c1cc(-c2ccccc2)sc1NC(=O)C(C)C`, the “hERG current change (%, negative = inhibition) at 1uM” value was 20.2%.
In the case of `O=C(Nc1nc(-c2ccc(Cl)s2)cs1)c1ccccc1`, the “hERG current change (%, negative = inhibition) at 1uM” value is reported as -5.4%.
With `CCc1cccc2c(=O)c(C(=O)N3CCCCCC3)c[nH]c12` the “hERG current change (%, negative = inhibition) at 1uM” value was 3.56%.
With `CCOC(=O)c1c(C)[nH]c(C(=O)NNC(=O)c2ccccc2)c1C` the “hERG current change (%, negative = inhibition) at 1uM” value was -4.25%.
In the case of `CC1(c2nnc(-c3ccc(F)cc3)o2)CC(c2cccnc2)=NO1` (centres unmarked), the “hERG current change (%, negative = inhibition) at 1uM” value is reported as 16.1%.
With `Cn1ccsc1=NC(=O)c1cc(S(=O)(=O)N2CCOCC2)ccc1F` the “hERG current change (%, negative = inhibition) at 1uM” value was 0.934%.
With `CCn1c(SCc2ccccc2)nc2ccccc2c1=O` the “hERG current change (%, negative = inhibition) at 1uM” value was 12.4%.
In the case of `CC1N=C2c3ccccc3N=C(SCc3cc(=O)n4cc(Cl)ccc4n3)N2C1=O` (centres unmarked), the “hERG current change (%, negative = inhibition) at 1uM” value is reported as -40.2%.
`O=C(O)CCCNc1cc(N2CCC3(CC2)OCCO3)c2noc3c2c1C(=O)c1ccccc1-3` was tested, and the “hERG current change (%, negative = inhibition) at 1uM” value was 12.1%.
`Cc1[nH][nH]c(=O)c1C(c1c(C)[nH][nH]c1=O)c1cn(Cc2ccc(F)cc2)c2ccccc12` was tested, and the “hERG current change (%, negative = inhibition) at 1uM” value was 11.6%.
`O=c1oc2ccccc2c(O)c1Sc1ccc(Cl)cc1` was tested, and the “hERG current change (%, negative = inhibition) at 1uM” value was 7.9%.
`c1ccc(Oc2nc(-c3ccccn3)nc3ccccc23)cc1` was tested, and the “hERG current change (%, negative = inhibition) at 1uM” value was 7.47%.
With `CC(=O)c1ccc(NC(=O)C2CCCNC2=O)cc1` (centres unmarked) the “hERG current change (%, negative = inhibition) at 1uM” value was 19.9%.
In the case of `CCCNCc1cc(OCC)c(OCC(=O)Nc2ccccc2)cc1Br`, the “hERG current change (%, negative = inhibition) at 1uM” value is reported as 3.59%.
With `COc1cccc(NC(=O)C(NCCc2ccc(S(N)(=O)=O)cc2)c2ccccc2)c1` (centres unmarked) the “hERG current change (%, negative = inhibition) at 1uM” value was 2.07%.
With `CCOC(=O)c1ccc(S(=O)(=O)NC2CCC(C)CC2)cc1` (centres unmarked) the “hERG current change (%, negative = inhibition) at 1uM” value was 0.0443%.
